This passage reports IC50 results from article PMC10880585 (ACS infectious diseases, 2023).

In the test the target is T1, P. falciparum DXR (Plasmodium falciparum, UniProt O96693).
T1 sequence (O96693 73-488): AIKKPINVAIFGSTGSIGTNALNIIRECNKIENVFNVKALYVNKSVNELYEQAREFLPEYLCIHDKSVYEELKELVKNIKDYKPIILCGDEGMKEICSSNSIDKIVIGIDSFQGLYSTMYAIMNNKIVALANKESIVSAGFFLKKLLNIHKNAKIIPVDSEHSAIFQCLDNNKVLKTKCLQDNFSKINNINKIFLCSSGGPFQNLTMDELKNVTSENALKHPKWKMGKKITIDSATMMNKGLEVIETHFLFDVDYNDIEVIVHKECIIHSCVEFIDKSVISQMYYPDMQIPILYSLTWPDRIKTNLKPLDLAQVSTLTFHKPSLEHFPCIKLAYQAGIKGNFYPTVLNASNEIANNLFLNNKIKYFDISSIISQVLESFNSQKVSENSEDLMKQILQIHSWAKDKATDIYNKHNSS
The conditions noted are these: read-out: Pf DXR IC50; 37 °C, 144 μM DXP, 150 μM NADPH.

A word on the IC50: it is the midpoint of a concentration-inhibition curve. With `CC(=O)N(O)CCCP(=O)(O)O` [compound 2, FR-900098, reference compound], the IC50 is 22 nM.
In the case of `N.N.O=C(c1ccccc1)N(O)C/C=C/P(=O)(O)O` [compound 11a, Diammonium [(1E)-3-(N-Hydroxy-1-phenylformamido)-prop-1-en-1-yl]phosphonate] it was 106 nM.
